Measured values reported in publication PMC3141655 (BMC Biochemistry, 2011).

Molecular target: MtOASS (O-acetylserine sulfhydrylase) (Mycobacterium tuberculosis, UniProt P9WP55)

`CSCC[C@H](N)C(=O)O` [Methionine, L-methionine] was tested, and the “enthalpic contribution to binding free energy” value was 5%.

For `CC(=O)OC[C@H](N)C(=O)O` [OAS, O-acetylserine], the “contribution of enthalpy to total binding free energy” value (25°C) was “less than 3%” and the enthalpy value (25°C) was 0.53 ± 0.3 kJ/M.
